Results reported in PubChem BioAssay AID686978 (National Center for Advancing Translational Sciences (NCATS), 2013).
Several values for one entry are separate records, joined by “and”; a condition that tells them apart may be missing. Identical values can stand only once. The whole screen tested about 420,000 compounds, of which about 64,000 (15%) were called active. Inconclusive results, whose numbers are uncertain, are shown with a selection of clear calls. Calls come from the whole dose curve; as a rule, active = well fitted inhibition curve with a large enough effect; inconclusive = small, poorly fitted or top-dose-only effect; inactive = flat fitted curve, though single readings scatter. Where the call is inconclusive, the potency comes from a doubtful curve fit. Some structures have more than one record in an assay (separate samples or runs), and their calls can disagree.

Assay: qHTS for Inhibitors of human tyrosyl-DNA phosphodiesterase 1 (TDP1): qHTS in cells in absence of CPT; note: nearly all actives have a fitted effect of over 55% in size
Conditions: DT40 Tdp1-/- hTDP1 cells, no CPT, ATP luminescence, 48 h; activity change, negative = growth inhibition: at 46.2 µM (top of the series) unless noted
Outline: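 Growth kinetics read by CellTiter-Glo luminescence after ≥48 hr at 37 °C. Cells: DT40 Tdp1-/- stably carrying human TDP1, 400 per well, compound exposure in the absence of CPT (DMSO vehicle).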
% is set by controls: 0 for no effect and ±100 for the full control effect; potency is the fitted concentration of half-maximal effect; tags give direction and shape of the fitted curve.

Compound | Potency | activity change, negative = growth inhibition
CC1CCCCN1Cc1c[nH]c2ccccc12 (configuration not stated) | active: 7.31 µM | –
O=C1Nc2cc(C(=O)N3CCC4(CC3)OCCO4)ccc2S/C1=C\c1ccccc1 | inconclusive: 25.9 µM [inhibitor, single point] | –
O=[N+]([O-])c1cc(I)c(O)c(I)c1 | inconclusive: 33.5 µM [inhibitor, single point] | –
COc1cccc(CNCCc2cccc(F)c2)c1OC | inconclusive: 14.6 µM [inhibitor, partial curve] | –
COc1ccc(OC)c(NC(=O)Cn2c(=O)oc3ccccc32)c1 | inconclusive: 20.6 µM [inhibitor, partial curve] | –
COc1ccc(C=C2C(=O)N(C)C(=O)N(C)C2=O)cc1COc1ccc(NC(C)=O)cc1 | inconclusive: 32.6 µM [inhibitor, single point] | –
CN(C)CC/C=C1\c2ccccc2Sc2ccc(Cl)cc21 | active: 23.7 µM and active: 20.6 µM | –
Cc1ccccc1-n1c(/C=C/c2ccc(N(C)C)cc2)nc2ccccc2c1=O | active: 13 µM | –
COc1ccc(-c2[nH]ncc2CNC(C)Cc2ccsc2)c(F)c1 (configuration not stated) | inconclusive: 29.1 µM [inhibitor, single point] | –
Cc1ccc([C@H]2C[C@H](n3cc(C4CC4)nn3)[C@@H](O)CN2Cc2cccs2)cc1 | inconclusive: 25.9 µM [inhibitor, single point] | –
COc1ccc(NC(=O)CSc2oc(-c3cccs3)nc2S(=O)(=O)c2ccccc2)c(OC)c1 | active: 23.1 µM | –
C=C1C(=O)O[C@@H]2C[C@@H](C)[C@H]3C=CC(=O)[C@]3(O)C[C@@H]12 | active: 4.61 µM | –
O=C(Nc1ccc(Oc2ccc(Cl)cc2)c(Cl)c1)c1cc(I)cc(I)c1O | inconclusive: 26.6 µM [inhibitor, single point] and inconclusive: 29.1 µM [inhibitor, single point] | –
COc1ccc(OC(=O)N2C/C(=C/c3ccccc3)C(=O)/C(=C\c3ccccc3)C2)cc1 | active: 1.46 µM | –
Nc1ccc2nc3c(c(Cl)c2c1)CCCC3 | inconclusive: 11.6 µM [inhibitor, partial curve] | –
N#Cc1cc2c(nc1SCC(=O)Nc1ccc(Cl)cc1)C1CCN2CC1 | inconclusive: 25.9 µM [inhibitor, single point] | –
CCCCC(F)(F)[C@@]1(O)CC[C@H]2[C@@H](CC(=O)[C@@H]2CCCCCCC(=O)O)O1 | inconclusive: 0.299 µM [inhibitor, full curve, poor fit] | –
O=[N+]([O-])c1cc(C(F)(F)F)c(Cl)c([N+](=O)[O-])c1Nc1ncc(C(F)(F)F)cc1Cl | active: 0.0251 µM | –
CCOC(=O)C(O)(c1ccc(N(CC)S(=O)(=O)c2ccc(C)cc2)cc1)C(F)(F)F (configuration not stated) | inconclusive: 18.4 µM [inhibitor, single point] | –
Cc1ccc2c(c1)CC1(CN2C)C(=O)NC(=O)N(c2ccccc2C)C1=O (configuration not stated) | – | inconclusive: -32.9% [inhibitor]
O=C1CC=C2C3CC4N(CCC45c4cc(O)c(O)cc4N1C25)CC3=CCBr (configuration not stated) | inconclusive: 16.4 µM [inhibitor, single point] | –

Compound | Potency | activity change, negative = growth inhibition
Cc1cccc(CCNCc2cc3cccc(C)c3[nH]c2=O)c1 | active: 13 µM | –
C=CCn1c(O)c(C=Nc2ccc(N(CC)CC)cc2)c(=O)[nH]c1=O | inconclusive: 20.6 µM [inhibitor, single point] | –
CCOP(=O)(OCC)C(Cc1ccc(OC)c(OC)c1)N=C(c1ccccc1)c1ccccc1 (configuration not stated) | inconclusive: 23.1 µM [inhibitor, partial curve] | –
CC12CCC(O)CC1CCC1C2CCC2(C)C(C(=O)CC(O)C(F)(F)F)CCC12 (configuration not stated) | inconclusive: 20.6 µM [inhibitor, single point] | –
O=C1NC(=O)N(c2ccc3c(c2)OCO3)C(=O)/C1=C/c1cccs1 | inconclusive: 25.9 µM [inhibitor, single point] | –
CCC(=O)c1c(O)n(C2CCCCCC2)c(=O)[nH]c1=O | active: 16.4 µM | –
C=CCN1C(=O)/C(=C/c2cc(C)n(-c3ccccn3)c2C)C(=O)NC1=S | inconclusive: 29.1 µM [inhibitor, single point] | –
CCCCn1c(O)c(C=NC2CC3CCC2(C)C3(C)C)c(=O)[nH]c1=O (configuration not stated) | inconclusive: 29.1 µM [inhibitor, single point] | –
CN(C)C(=O)Oc1ccc(Br)c2ccccc12 | – | inactive: 2.09%
CCc1cccc(CC)c1N(COC)C(=O)CCl | inconclusive: 25.9 µM [inhibitor, single point] | –
CCOC(=O)c1c(-n2c(C)cc(/C=C3\C(=O)NC(=O)N(C)C3=O)c2C)sc2c1CCCC2 | inconclusive: 25.9 µM [inhibitor, single point] | –
COc1ccc(OCC(=O)N2CCN(Cc3ccc(SC)cc3)CC2)cc1 | active: 23.1 µM | –
COc1ccc(CN2Cc3cc(N4CCCCC4)ccc3-n3nncc3C2)cc1 | inconclusive: 29.1 µM [inhibitor, single point] | –
O=C1NC(=O)C(CCc2ccccn2)(Cc2ccc3c(c2)OCO3)C(=O)N1CCc1ccccc1 (configuration not stated) | inconclusive: 12.6 µM [inhibitor, single point] | –
CCCCCCN=C(C)c1c(O)n(Cc2ccccc2)c(=O)[nH]c1=O | inconclusive: 29.1 µM [inhibitor, single point] | –
COc1ccc2c(c[n+](C)c3c4cc5c(cc4ccc23)OCO5)c1OC | active: 1.26 µM | –
Cc1cc(C=C2C(=O)N(C)C(=S)N(C)C2=O)c(C)n1-c1cccnc1 | inconclusive: 25.9 µM [inhibitor, single point] | –
CCN1CC2(COC(=O)c3ccccc3N)CCC(OC)C34C5CC6C(OC)CC(O)(C5C6OC)C(O)(C(OC)C23)C14 (configuration not stated) | – | inactive: -23.3%
CN1CCCN(C(=O)COc2ccc(F)cc2Cl)CC1 | – | inactive: 6.58%
Cc1ccc(-n2ncc(C(=O)N3CCN(c4ccc(Cl)cc4)CC3)c2C2CCN(C(=O)OC(C)(C)C)CC2)c(C)c1 | active: 11.6 µM | –
O=C(NC1CCCCC1)N1Cc2cc(N3CCOCC3)ccc2-n2nncc2C1 | – | inactive: 2.17%
